# Measurements from the supplement of paper PMC8728848.
# The list shows a part of the results.
# B1: Cp ZmpB (Clostridium perfringens), Q0TR08 (protein)
# chain: MNKRKIAAIILATMITNLSATTIDVLAQELNTKNNSKVEVSHDDESHQARVSKFDLYNSDKLDAYNQEFQVSRSNIKSINNNGGKYNSSTIDKAIDGNLETHWETGKPNDANFTNEVVVTFNEITNIDRIVYSARRDSARGKGFAKEFEIYASLKDEGDDFNLVSSGEYTESTRDLVEIKFNPTDFKRLKFKFKKADQNWASAAEFMFYKEDKLNEKFNGLFTDSSMNKVSEEFNTLEKLNAFENELKDHPIYDLYKEGLNNARAILTETSENPTKATLGQITYNLNDDYNNQYRMPYKNIKAIKNNGRHYAAQNIEKAIDNDVNTYWETGTLNSSSFNNEVEVEFNDLVTLDRIVYGSRQSDLKGFAEEVYIYASRTSKGDTYKLVATGAHEATKGLVEAKFEPTEFKRVKFKFKKSKQNSATLNELMFYKPDEVYSSIPKLFTDGTMSELSEEFNSLEKINAFKEKAKNHPLYNDFNETIELAESLISNPRKEDVLELEMRGDSISEAKKRKVWNFQDWQITGLSARAGDKITVYVDVAEGDPTPTLLYKQSLTQHGGATSFQLKPGKNEITIPEINYESNGIPKDVIQGGDLFFTNYKSDSQKRAPKVRIEGASKYPVFILGKSDENEVMKELEAYVEKIKAEPKTTPNIFAVSSNKSLEFVQATYALDWYKKNNKTPKYTAEQWDQYIADAMGFWGFDNSKDVNSDFNFRIMPMVKNLSGGAFMNAGNGVIGIRPGNQDAILAANKGWGVAHELGHNFDTGGRTIVEVTNNMMPLFFESKYKTKTRITDQNIWENNTYPKVGLDDYSNNELYNKADSTHLAQLAPLWQLYLYDNTFYGKFERQFRERDFGNKNREDIYKSWVVAASDAMELDLTEFFARHGIRVDDKVKEDLAKYPKPDKKIYYLNDLAMNYKGDGFTENAKVSVSTSGSNGNIKLSFSVDDENKDNILGYEIRRDGKYVGFTSNDSFVDTKSNLDEDGVYVVTPYDRKLNTLNPIEVNALQPTLSVNPVITLALGEEFNEEEYIVAKDIKGNSLSESVKVKSSNVNTSKVGEYEVLYSLEDSKGNEYTKTSKVNVVSRKEYMSDLTPKQSSNGWGTVRKDKSISGGVIGLTRDGDFVDYNKGLGLHSNAEYVYDLEGKDYDYFESYVGVDKAMSSRPASSVIFKVLVDGEEKFNSGVMRSTTPQKYVKVDVKNAKELKLIVNDAGDGDSSDHASFGDAKLATLSSKPIIKGENLAYSMDEKVDLMKGITATDIEDGNITSKVQIKSSDFVEGKSGIFTVVYSVTDSDGLTSECSRTIAVTDKETQLSDLNWKSATIGSGSVRKDRAVSGNQIRLLNEDNSVETFAKGIGTHSYSEIVYNSEGYDIFDTWVGIDRHVADKKVSSVKFKVYVDGELKAETDVMRIDTPKKRLVVDVRNSKEIKLVVDVADNGNNWDHADWADAKFRNLAEYDASELNKAIEEAKKLDLNNYTEESSEALKNAISKGEEALLSKDKETINSALEELNKEMNSLVKVDLNAVINIPDKYLLKSIQNQLNKTGDITLGDMYSLTTLTLSGVEDLTGLENAKNLETLNMDYNEVKDLRPLSKLKKLNTLNAQEQFIAAGELKPSNGKVIGDSKVYNREGKNVAKTIRVVDKNGNTILEQDAKDEFTINTKDLSSGLYGVHVLFEDEGFSGVMFYLFNV
# What was measured:
# Assay in all cases: glycan array binding signal (z-score within array); higher = stronger binding
# Conditions in all cases: glycan notation: IUPAC condensed, linker removed
# [1] = molecular target: Gal3S(b1-3)[Fuc(a1-4)]GlcNAc
# Outline: (§1)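 Glycan array binding is given as a within-array Z-score, which can be read as non-binding when negative. The arrays, 3228 of them, came from the Consortium for Functional Glycomics database and were retained only where the protein sequence was available. Z-scores were averaged across arrays of the same protein sequence at different concentrations or buffers and across linkers.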
# [2] = molecular target: Gal3S(b1-4)Glc
# Outline: as §1
# [3] = molecular target: Gal3S(b1-4)Glc6S
# Outline: as §1
# [4] = molecular target: Gal3S(b1-4)GlcNAc
# Outline: as §1
# [5] = molecular target: Gal3S(b1-4)[Fuc(a1-3)]Glc6S
# Outline: as §1
# [6] = molecular target: Gal3S(b1-4)[Fuc(a1-3)]GlcNAc
# Outline: as §1
# [7] = molecular target: Gal3S(b1-4)[Fuc(a1-3)]GlcNAc6S
# Outline: as §1
# [8] = molecular target: Gal3S4S(b1-4)GlcNAc
# Outline: as §1
# [9] = molecular target: Gal3S6S(b1-4)GlcNAc
# Outline: as §1
# [10] = molecular target: Gal3S6S(b1-4)GlcNAc6S
# Outline: as §1
# [11] = molecular target: Gal4S(b1-4)GlcNAc
# Outline: as §1
# [12] = molecular target: Gal4S6S(b1-4)GlcNAc
# Outline: as §1
# [13] = molecular target: Gal6P(b1-4)GlcNAc
# Outline: as §1
# [14] = molecular target: Gal6S(b1-3)GlcNAc
# Outline: as §1
# [15] = molecular target: Gal6S(b1-3)GlcNAc6S
# Outline: as §1
# [16] = molecular target: Gal6S(b1-4)Glc
# Outline: as §1
# [17] = molecular target: Gal6S(b1-4)Glc6S
# Outline: as §1
# [18] = molecular target: Gal6S(b1-4)GlcNAc
# Outline: as §1
# [19] = molecular target: Gal6S(b1-4)GlcNAc6S
# Outline: as §1
# [20] = molecular target: GalNAc(a1-3)Gal
# Outline: as §1
# [21] = molecular target: GalNAc(a1-3)GalNAc
# Outline: as §1
# [22] = molecular target: GalNAc(a1-3)GalNAc(b1-3)Gal(a1-4)Gal(b1-4)Glc
# Outline: as §1
# [23] = molecular target: GalNAc(a1-3)GalNAc(b1-3)Gal(a1-4)Gal(b1-4)GlcNAc
# Outline: as §1
# [24] = molecular target: GalNAc(b1-3)Gal
# Outline: as §1
# [25] = molecular target: GalNAc(b1-3)Gal(a1-4)Gal(b1-4)GlcNAc
# Outline: as §1
# [26] = molecular target: GalNAc(b1-3)Gal(a1-4)Gal(b1-4)GlcNAc(b1-3)Gal(b1-4)Glc
# Outline: as §1
# [27] = molecular target: GalNAc(b1-3)Gal(a1-6)Gal(b1-4)Glc
# Outline: as §1
# [28] = molecular target: GalNAc(b1-3)GalNAc
# Outline: as §1
# [29] = molecular target: GalNAc(b1-3)GlcNAc
# Outline: as §1
# [30] = molecular target: GalNAc(b1-4)Gal(b1-4)Glc
# Outline: as §1
# [31] = molecular target: GalNAc(b1-4)GlcNAc
# Outline: as §1
# [32] = molecular target: GalNAc(b1-4)GlcNAc(b1-2)Man
# Outline: as §1
# [33] = molecular target: GalNAc(b1-4)GlcNAc(b1-2)Man(a1-3)[GalNAc(b1-4)GlcNAc(b1-2)Man(a1-6)]Man(b1-4)GlcNAc(b1-4)GlcNAc
# Outline: as §1
# [34] = molecular target: GalNAc(b1-4)GlcNAc(b1-3)GalNAc(b1-4)GlcNAc
# Outline: as §1
# [35] = molecular target: GalNAc(b1-4)GlcNAc6S
# Outline: as §1
# [36] = molecular target: GalNAc(b1-6)GalNAc
# Outline: as §1
# [37] = molecular target: GalNAc3S(b1-4)GlcNAc
# Outline: as §1
# [38] = molecular target: GalNAc3S(b1-4)GlcNAc3S
# Outline: as §1
# [39] = molecular target: GalNAc3S(b1-4)[Fuc(a1-3)]GlcNAc
# Outline: as §1
# [40] = molecular target: GalNAc4S6S(b1-4)GlcNAc
# Outline: as §1
# [41] = molecular target: GalNAc6S(b1-4)GlcNAc
# Outline: as §1
# [42] = molecular target: Glc(a1-4)Glc
# Outline: as §1
# [43] = molecular target: Glc(a1-4)Glc(a1-4)Glc(a1-4)Glc
# Outline: as §1
# [44] = molecular target: Glc(a1-6)Glc(a1-6)Glc
# Outline: as §1
# [45] = molecular target: Glc(a1-6)Glc(a1-6)Glc(a1-6)Glc
# Outline: as §1
# [46] = molecular target: Glc(b1-4)Glc
# Outline: as §1
# [47] = molecular target: Glc(b1-6)Glc
# Outline: as §1
# [48] = molecular target: GlcA(b1-3)Gal
# Outline: as §1
# [49] = molecular target: GlcA(b1-3)GlcNAc
# Outline: as §1
# [50] = molecular target: GlcA(b1-6)Gal
# Outline: as §1
# [51] = molecular target: GlcA3S(b1-3)Gal(b1-4)GlcNAc(b1-2)Man
# Outline: as §1
# [52] = molecular target: GlcA3S(b1-3)Gal(b1-4)GlcNAc(b1-3)Gal(b1-4)Glc
# Outline: as §1
# [53] = molecular target: GlcNAc(a1-3)Gal(b1-4)GlcNAc
# Outline: as §1
# [54] = molecular target: GlcNAc(a1-4)Gal(b1-3)GlcNAc
# Outline: as §1
# [55] = molecular target: GlcNAc(a1-4)Gal(b1-4)GalNAc
# Outline: as §1
# [56] = molecular target: GlcNAc(a1-4)Gal(b1-4)GlcNAc
# Outline: as §1
# [57] = molecular target: GlcNAc(a1-4)Gal(b1-4)GlcNAc(b1-3)Gal(b1-4)Glc
# Outline: as §1
# [58] = molecular target: GlcNAc(a1-4)Gal(b1-4)GlcNAc(b1-3)Gal(b1-4)GlcNAc
# Outline: as §1
# [59] = molecular target: GlcNAc(a1-4)Gal(b1-4)GlcNAc(b1-3)Gal(b1-4)GlcNAc(b1-3)Gal(b1-4)GlcNAc
# Outline: as §1
# [60] = molecular target: GlcNAc(a1-4)Gal(b1-4)GlcNAc(b1-3)Gal(b1-4)[Fuc(a1-3)]GlcNAc(b1-3)Gal(b1-4)[Fuc(a1-3)]GlcNAc
# Outline: as §1
binder,measurement,setting,value
B1,glycan array binding signal (z-score),[1],-0.055
same,glycan array binding signal (z-score),[2],0.05
same,glycan array binding signal (z-score),[3],0.365
same,glycan array binding signal (z-score),[4],0.198
same,glycan array binding signal (z-score),[5],0.061
same,glycan array binding signal (z-score),[6],-0.002
same,glycan array binding signal (z-score),[7],-0.035
same,glycan array binding signal (z-score),[8],0.473
same,glycan array binding signal (z-score),[9],-0.199
same,glycan array binding signal (z-score),[10],1.17
same,glycan array binding signal (z-score),[11],-0.125
same,glycan array binding signal (z-score),[12],0.461
same,glycan array binding signal (z-score),[13],-0.373
same,glycan array binding signal (z-score),[14],-0.331
same,glycan array binding signal (z-score),[15],0.343
same,glycan array binding signal (z-score),[16],-0.137
same,glycan array binding signal (z-score),[17],0.546
same,glycan array binding signal (z-score),[18],-0.267
same,glycan array binding signal (z-score),[19],0.512
same,glycan array binding signal (z-score),[20],0.069
same,glycan array binding signal (z-score),[21],-0.2
same,glycan array binding signal (z-score),[22],-0.174
same,glycan array binding signal (z-score),[23],-0.396
same,glycan array binding signal (z-score),[24],0.101
same,glycan array binding signal (z-score),[25],0.465
same,glycan array binding signal (z-score),[26],0.209
same,glycan array binding signal (z-score),[27],0.111
same,glycan array binding signal (z-score),[28],-0.273
same,glycan array binding signal (z-score),[29],-0.476
same,glycan array binding signal (z-score),[30],-0.224
same,glycan array binding signal (z-score),[31],0.042
same,glycan array binding signal (z-score),[32],-0.369
same,glycan array binding signal (z-score),[33],0.667
same,glycan array binding signal (z-score),[34],0.029
same,glycan array binding signal (z-score),[35],-0.391
same,glycan array binding signal (z-score),[36],-0.526
same,glycan array binding signal (z-score),[37],-0.219
same,glycan array binding signal (z-score),[38],0.284
same,glycan array binding signal (z-score),[39],-0.162
same,glycan array binding signal (z-score),[40],-0.231
same,glycan array binding signal (z-score),[41],0.23
same,glycan array binding signal (z-score),[42],-0.107
same,glycan array binding signal (z-score),[43],0.367
same,glycan array binding signal (z-score),[44],-0.335
same,glycan array binding signal (z-score),[45],-0.3
same,glycan array binding signal (z-score),[46],-0.26
same,glycan array binding signal (z-score),[47],0.35
same,glycan array binding signal (z-score),[48],-0.216
same,glycan array binding signal (z-score),[49],-0.351
same,glycan array binding signal (z-score),[50],0.493
same,glycan array binding signal (z-score),[51],0.403
same,glycan array binding signal (z-score),[52],-0.037
same,glycan array binding signal (z-score),[53],-0.366
same,glycan array binding signal (z-score),[54],-0.284
same,glycan array binding signal (z-score),[55],0.223
same,glycan array binding signal (z-score),[56],-0.001
same,glycan array binding signal (z-score),[57],-0.14
same,glycan array binding signal (z-score),[58],-0.144
same,glycan array binding signal (z-score),[59],0.055
same,glycan array binding signal (z-score),[60],0.88
